According to PubChem BioAssay AID686978 (National Center for Advancing Translational Sciences (NCATS), 2013):
“And” between values parts separate entries of the source, which are not always exact repeats. Equal values may be shown once. Out of some 420,000 compounds screened, about 64,000 (15%) were called active. This list was built around the results that the source calls inconclusive (neither active nor inactive); the mix of calls is not that of the screen. The call rests on the fitted dose curve; in most records, active means well fitted inhibition curve with a large enough effect; inconclusive means small, poorly fitted or top-dose-only effect; inactive means flat fitted curve, though single readings scatter. Where the call is inconclusive, the potency comes from a doubtful curve fit.
Potency means the concentration at half of the fitted maximal effect; tags describe the fitted curve by direction and shape.

Experiment: qHTS for Inhibitors of human tyrosyl-DNA phosphodiesterase 1 (TDP1): qHTS in cells in absence of CPT; further: nearly all actives have a fitted effect of over 55% in size
Conditions: DT40 Tdp1-/- hTDP1 cells, no CPT, ATP luminescence, 48 h; series mostly up to 46.2 µM
Outline: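 No-CPT arm: Tdp1-/-;hTDP1 DT40 cells (400/well) plus compounds, incubated ≥48 hr at 37 °C. Readout CellTiter-Glo luminescence.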
For `CCC(C)NC(=O)CSc1nc2cc3c(cc2c(=O)n1CCCC(=O)NCc1ccc2c(c1)OCO2)OCO3` (centres undefined), the Potency was “inactive”. With `C[C@H]1CN(S(=O)C(C)(C)C)[C@@H](CCO)/C1=C\c1ccccc1` (some centres undefined) the Potency was inconclusive: 29.1 µM [inhibitor, single point]. In the case of `COc1cc(OC)c(Nc2ncnc3onc(-c4cccc(Cl)c4)c23)cc1Cl`, the Potency is reported as “inactive”. With `CN(C)c1ccc(C(=C2C=CC(=[N+](C)C)C=C2)c2ccccc2)cc1` the Potency was active: 0.596 µM. With `O=C(N/N=C/c1ccccc1[N+](=O)[O-])c1ccc(CN2CCOCC2)cc1` the Potency was inconclusive: 8.2 µM [inhibitor, partial curve]. With `O=C(C1CCCCN1S(=O)(=O)c1ccccc1[N+](=O)[O-])N1CCCC1` (centres undefined) the Potency was inconclusive: 29.1 µM [inhibitor, single point]. With `COc1ccc(Cl)cc1NC(=O)c1c(NCc2ccc(C)o2)sc2c1CCCC2` the Potency was active: 20.6 µM. With `O=C(Nc1ccc(-c2nc3cccnc3s2)cc1)c1ccc(Br)o1` the Potency was active: 8.2 µM. For `CCc1nn(C)c2c(=O)c(=O)c2n(C)[nH]1`, the Potency was “inactive”. In the case of `Cc1ccc(NC(=O)c2nc[nH]c2C(=O)Nc2ccccc2F)cc1`, the Potency is reported as inconclusive: 29.1 µM [inhibitor, single point]. With `CC(=O)Oc1ccc(C(=O)Nc2cccc(NC(=O)c3ccco3)c2)cc1` the Potency was “inactive”. With `N#CC1=C(S)N(c2ccccc2)C2(CCCCC2)NC1=O` the Potency was inconclusive: 20.6 µM [inhibitor, single point]. With `COCCNC(=O)c1cc2c(Cl)nc3ccc(C)cc3c2s1` the Potency was inconclusive: 18.4 µM [inhibitor, single point]. In the case of `Cc1cccnc1NC(=O)c1cc2ccccc2oc1=O`, the Potency is reported as inconclusive: 8.2 µM [inhibitor, partial curve]. With `Cc1ccccc1Nc1nc(N)nc(COC(=O)CC2CC3CCC2C3)n1` (centres undefined) the Potency was inconclusive: 29.1 µM [inhibitor, single point]. For `Cc1[nH]c2ccccc2c1CCNC(=O)c1ccc2c(c1[N+](=O)[O-])C(=O)c1ccccc1C2=O`, the Potency was active: 2.91 µM. For `Cc1n[nH]c(C)c1S(=O)(=O)N(CC(=O)NC1CCCC1)c1ccc(C(C)C)cc1`, the Potency was inconclusive: 29.1 µM [inhibitor, single point]. With `COC(=O)C1=C(COc2ccccc2)NC(=O)NC1c1ccc(Br)cc1` (centres undefined) the Potency was inconclusive: 13 µM [inhibitor, partial curve]. In the case of `CCOc1c(N2CCOCC2)c(=O)c1=O`, the Potency is reported as “inactive”. With `CCCCNC(=O)c1nc(-c2cccc(C(F)(F)F)c2)oc1-c1ccc(OC(F)(F)F)cc1` the Potency was inconclusive: 9.2 µM [inhibitor, partial curve]. With `COc1ccc(-c2nc3cnccn3c2Nc2ccc3c(c2)OCO3)cc1` the Potency was inconclusive: 29.1 µM [inhibitor, single point]. In the case of `CC(=O)OCC(=O)N1N=C(c2ccc3ccccc3c2)CC1c1ccccc1` (centres undefined), the Potency is reported as “inactive”. With `CCCC(C(=O)NC(C)(C)C)N(CCN1CCOCC1)C(=O)CNS(=O)(=O)c1ccccc1` (centres undefined) the Potency was “inactive”. For `CCc1ccc(NC(=O)CSc2nnc(-c3cc4occc4n3C)n2-c2ccccc2C)cc1`, the Potency was inconclusive: 18.4 µM [inhibitor, single point]. For `CCCCNC(=O)C(CC)(ONc1ccccc1C(F)(F)F)c1ccccc1OC` (centres undefined), the Potency was active: 16.4 µM. In the case of `COc1cccc(C(O)c2nc(/C=C/c3ccc(C(F)(F)F)cc3)cs2)c1` (centres undefined), the Potency is reported as inconclusive: 29.1 µM [inhibitor, single point]. In the case of `Clc1ccccc1Cc1cn2cc(-c3ccccc3)nc2s1`, the Potency is reported as inconclusive: 23.1 µM [inhibitor, single point]. For `COc1ccc(C2=NOC(Cn3nc(C(=O)NCc4ccccc4OC)cc3-c3ccccc3)C2)cc1` (centres undefined), the Potency was active: 20.6 µM. With `COc1ccc(C(=O)COC(=O)c2ccc3c(c2)OCCO3)c(OC)c1` the Potency was inconclusive: 18.4 µM [inhibitor, partial curve]. For `CCc1ccc(/C=N/NC(=O)c2nnn(-c3nonc3N)c2CN2CCc3ccccc32)cc1`, the Potency was inconclusive: 29.1 µM [inhibitor, single point]. In the case of `Cc1ccc2c(c1)C(c1ccc(F)cc1)N(C(=O)C1CC1)CC(=O)N2` (centres undefined), the Potency is reported as inconclusive: 16.4 µM [inhibitor, single point]. With `CCN(CC)S(=O)(=O)c1cccc(NC(=O)/C=C/c2cccc([N+](=O)[O-])c2)c1` the Potency was active: 29.1 µM. In the case of `CC(C)[C@H](NC(=O)c1ccco1)C(=O)OCC(=O)Nc1ccc(F)cc1`, the Potency is reported as “inactive”. With `O=C(NCc1nnc(SCC(=O)N2CCOCC2)o1)c1c(F)cccc1Cl` the Potency was “inactive”. In the case of `Cc1cc(C)cc(NC(=O)C2(c3cccs3)CCOCC2)c1`, the Potency is reported as inconclusive: 29.1 µM [inhibitor, single point] and inconclusive: 13 µM [inhibitor, partial curve]. In the case of `CC(=O)Nc1ccc(S(=O)(=O)N2CCN(C(=O)c3ncoc3-c3ccccc3C)CC2)cc1`, the Potency is reported as inconclusive: 10.3 µM [inhibitor, partial curve]. For `CC(C)c1ccc(Nc2ncnc3c2c(-c2ccccc2)cn3-c2ccccc2)cc1`, the Potency was inconclusive: 23.1 µM [inhibitor, single point]. In the case of `CCOC(=O)C(C(=O)Nc1ccc(C)cc1)C1CCCCC1` (centres undefined), the Potency is reported as inconclusive: 20.6 µM [inhibitor, single point]. With `CCCC(=O)c1ccc(N2CCCC2)c(F)c1` the Potency was inconclusive: 29.1 µM [inhibitor, single point]. With `CC(=O)Nc1ccc(S(=O)(=O)N2CCN(S(=O)(=O)N3CCOCC3)CC2)cc1` the Potency was inconclusive: 13 µM [inhibitor, partial curve]. In the case of `C/C(Cl)=C/CSc1nc2c(c(=O)[nH]c(=O)n2C)n1C(C)C`, the Potency is reported as active: 16.4 µM. In the case of `COc1ccccc1CNC(=O)Cn1nc(C)c2nn(-c3ccc(Cl)cc3)c(C)c2c1=O`, the Potency is reported as active: 23.1 µM. For `COc1cccc(-c2nnc(NC(=O)c3cccc(F)c3)o2)c1`, the Potency was active: 3.26 µM. In the case of `O=S(=O)(c1ccc2ccccc2c1)N1CCN(C(=S)Nc2ccc(F)c(Cl)c2)CC1`, the Potency is reported as inconclusive: 29.1 µM [inhibitor, single point].
